# Reference: the BET-seq Pho4 binding data (Le et al. 2018)
# This is one part of the list. Values were computed here from the reads of four pooled replicates and scatter widely.
# Target: T1, Pho4 (S. cerevisiae) (UniProt P07270)
# T1 sequence: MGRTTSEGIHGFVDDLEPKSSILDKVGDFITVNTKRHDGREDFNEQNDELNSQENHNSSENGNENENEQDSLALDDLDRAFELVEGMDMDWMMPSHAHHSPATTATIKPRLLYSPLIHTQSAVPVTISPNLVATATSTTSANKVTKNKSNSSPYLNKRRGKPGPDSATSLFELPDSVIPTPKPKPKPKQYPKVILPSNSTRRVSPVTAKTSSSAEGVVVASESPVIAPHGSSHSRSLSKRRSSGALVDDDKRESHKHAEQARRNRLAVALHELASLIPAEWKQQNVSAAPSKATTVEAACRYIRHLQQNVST
# Experiment: relative binding free energy (BET-seq); higher = weaker binding
# Details: reference: library average
row,Sequence,relative binding free energy [kcal/mol]
1,AGGGGCACGTGAATAG,0.21
2,TTCTGCACGTGGCTGT,-0.18
3,TCGGGCACGTGAGATG,0.03
4,TTACACACGTGTTTTT,-0.03
5,CAAGGCACGTGGAGGC,-0.02
6,CGGTTCACGTGTGTCG,0.37
7,TCGATCACGTGGGCTT,0.09
8,TGGAGCACGTGTGAAA,0.13
9,ATGAGCACGTGGGGTA,-0.26
10,TCATTCACGTGTGAGT,0.35
11,TGTTGCACGTGGTCGA,-0.18
12,CTGAGCACGTGATGGG,0
13,TATGTCACGTGACTGG,0.08
14,CGTGTCACGTGTCGGT,0.15
15,TCTGGCACGTGTTGCT,-0.14
16,TAGGTCACGTGTATAG,0.07
17,GCGGTCACGTGGAGAT,0.19
18,CATGTCACGTGTAGTG,0.18
19,AGGTTCACGTGCTTAT,0.18
20,GATATCACGTGTTATA,0.2
21,GGTGACACGTGGGGGA,-0.12
22,TTGCACACGTGCTTGT,-0.04
23,GGCGGCACGTGTAGCG,0.02
24,ATATGCACGTGATTTG,0.07
25,AGGATCACGTGGTGTA,0.04
26,TGGTGCACGTGATTCT,0.17

row,Sequence,relative binding free energy [kcal/mol]
1,TTTTCCACGTGGGGAT,0.06
2,GTATGCACGTGTAGTC,0.14
3,TAGTTCACGTGTAGAA,0.14
4,CGGGTCACGTGAATGT,0.22
5,TGTTGCACGTGCGGAA,0
6,AAGGGCACGTGAAGAG,0.21
7,GGGCGCACGTGAGGAG,0.1
8,TGAGGCACGTGTTGAA,-0.09
9,TATCTCACGTGGGGTC,0.09
10,GAGTACACGTGTTGGC,0.07
11,TAGATCACGTGTGATG,0.15
12,GGTATCACGTGGGCCG,0.08
13,GACTGCACGTGTTTGG,-0.1
14,AGGGTCACGTGAGGTA,0.34
15,GGGTTCACGTGCTGGT,0.4
16,ATTGACACGTGTGGTC,0.07
17,AGCTGCACGTGTCGGT,-0.05
18,GTGGTCACGTGCGCAT,0.08
19,AACTGCACGTGAGGGT,0.19
20,TGCTGCACGTGGTTGC,-0.04
21,CGGGTCACGTGAATGA,0.39
22,TCGGTCACGTGATTAG,0.16
23,AAGAGCACGTGTTTGG,-0.06
24,TGGTTCACGTGCATAT,0.22
25,TTGGGCACGTGGAGTC,0.06
26,GTAGGCACGTGTCATG,-0.11

row,Sequence,relative binding free energy [kcal/mol]
1,CGGGGCACGTGGCGCG,-0.25
2,GGGAACACGTGGGAAT,0.04
3,TGTAACACGTGGCAGT,0.01
4,GTTGTCACGTGGATGT,0.17
5,TTTATCACGTGATGAA,0.18
6,CTTGGCACGTGTAAGT,0.05
7,CAGTTCACGTGTTAGT,0.28
8,GAAGGCACGTGGATAT,-0.05
9,GGGGTCACGTGGAGTC,0.24
10,AAGGTCACGTGTGATG,0.21
11,GTTCTCACGTGGTAGT,0.22
12,GTTAGCACGTGCAGGG,-0.08
13,GTTTTCACGTGTTTTG,0.33
14,GTTGGCACGTGGCAGG,-0.11
15,GTTGACACGTGTGTAT,0.13
16,AGATACACGTGGATTG,0.1
17,GTGGGCACGTGGGGAT,-0.15
18,GTTTACACGTGGGCAA,0.12
19,AACTTCACGTGGTTGG,0.16
20,GTTGGCACGTGTGACT,0.02
21,AATAACACGTGGGTCG,-0.05
22,GGGGGCACGTGCCAGT,-0.33
23,ATGATCACGTGGTTTT,0.13
24,AATTTCACGTGTATGC,0.27
25,CGTAGCACGTGGTGCT,-0.13
26,GATGACACGTGGCTTT,0.12

row,Sequence,relative binding free energy [kcal/mol]
1,TGCTTCACGTGGATTT,0.26
2,ACTTGCACGTGTTGCT,0.15
3,AACTTCACGTGGTATG,0.19
4,GTTCGCACGTGCTGGT,-0.04
5,TGTATCACGTGAGTAG,0.37
6,GTTCGCACGTGGTGTA,-0.06
7,TGTTTCACGTGAGGAA,0.35
8,TATTACACGTGGTGTC,-0.04
9,ACGGCCACGTGGGAGG,-0.08
10,TTAAACACGTGGTTTA,-0.09
11,TGGGGCACGTGCCGGT,-0.24
12,TTGTGCACGTGATGCG,0.14
13,GTGGGCACGTGAGGGC,0.2
14,GGGCGCACGTGTGGGT,-0.03
15,TTTCGCACGTGGGCGG,-0.18
16,AGGGGCACGTGACGGG,0.01
17,AGTTACACGTGGCGTT,0.11
18,TTTATCACGTGAGCGT,0.4
19,GTATACACGTGTAATG,0.1
20,AATAGCACGTGGAAGG,-0.05
21,GTGGCCACGTGGTTGA,-0.05
22,GGATTCACGTGATGAT,0.35
23,ATTTGCACGTGTTGCG,0.01
24,GGGGCCACGTGTGGAG,0.01
25,TGCGCCACGTGAGTTG,0.25
26,TTGGTCACGTGTTATA,0.06

row,Sequence,relative binding free energy [kcal/mol]
1,CTGTTCACGTGCTTGT,0.31
2,TTGGACACGTGTACGG,0.09
3,GATTGCACGTGGTCGG,-0.05
4,TGGACCACGTGTGAGG,0.01
5,TACTTCACGTGCTTGT,0.23
6,TGACACACGTGTGTAT,-0.02
7,GTTGTCACGTGTTTAT,0.19
8,GTTAGCACGTGTACTG,-0.07
9,TAAATCACGTGAGATG,0.38
10,TGTGACACGTGTGTAA,-0.01
11,AGTGTCACGTGTCTTG,0.1
12,CGGCACACGTGGAGTT,0.16
13,ATAAACACGTGGGAGT,-0.02
14,TAGAACACGTGGTTTA,-0.08
15,TAAGGCACGTGGCGTG,-0.27
16,TTTCGCACGTGGCTTG,-0.17
17,GCGGGCACGTGGTCTG,-0.22
18,GTATGCACGTGGTTCA,-0.07
19,AGTGTCACGTGTTAGA,0.05
20,GATTGCACGTGGGGGT,0.01
21,CTGGCCACGTGGATTG,0.08
22,GGTATCACGTGGGGTG,0.09
23,TTTAACACGTGTCAGT,0.04
24,GGTGGCACGTGCCTGT,-0.14
25,AATGTCACGTGGGCGA,0.05
26,TAGATCACGTGCTGTT,0.15

row,Sequence,relative binding free energy [kcal/mol]
1,ATAGGCACGTGATGAA,-0.06
2,AGGTGCACGTGGTATC,-0.17
3,GAGCCCACGTGGGGTG,-0.16
4,ATATACACGTGGTGAA,0.01
5,GTCGGCACGTGGAAGT,0.05
6,TAATACACGTGGACTT,0.21
7,CTTTGCACGTGTTGTA,0.09
8,TTTATCACGTGTCGAA,0.12
9,CTTGGCACGTGTGCTG,-0.16
10,AGTTGCACGTGCGTGC,-0.21
11,TGGAACACGTGTCGGA,0.2
12,GTAGTCACGTGCAGCG,0.16
13,GTTGACACGTGTTAGA,-0.08
14,ACTGGCACGTGTAAGT,0.03
15,GATAACACGTGGTAGT,0.15
16,GGTAGCACGTGAAGGC,0.12
17,GGTTTCACGTGAGAGA,0.57
18,TAGATCACGTGTGCAT,0.12
19,CAGGGCACGTGCGGCG,-0.29
20,ATGGTCACGTGGTCTC,0.05
21,TTTGTCACGTGTGGGA,0.23
22,ATTAGCACGTGCGTGT,-0.14
23,TCTTGCACGTGTGCTG,0.05
24,ATATGCACGTGGTAGC,-0.13
25,TTTTCCACGTGGTGAA,-0.03
26,CGTGACACGTGAGCGG,0.25

row,Sequence,relative binding free energy [kcal/mol]
1,AATTACACGTGTGAGG,0.14
2,GATATCACGTGATTTA,0.22
3,ATCTTCACGTGCGGTT,0.24
4,AGGAACACGTGGGCAG,-0.01
5,CAGTGCACGTGAGGGC,0.24
6,AGAGGCACGTGCGAGT,-0.16
7,TGTATCACGTGTAAGT,0.17
8,TCTAGCACGTGCGTTG,-0.12
9,TATTGCACGTGGCGCG,-0.14
10,TATTTCACGTGGTTGC,0.22
11,TACGGCACGTGGTAAT,-0.14
12,GTCGGCACGTGTGTGC,0.12
13,GTCGGCACGTGATTAA,0.21
14,AAGTTCACGTGATGTG,0.3
15,TGGTGCACGTGATATC,-0.01
16,AATGCCACGTGTGTTG,-0.01
17,ACGCGCACGTGTGTGG,-0.14
18,GATTTCACGTGGCGAG,0.46
19,AGGTTCACGTGTTTAC,0.18
20,TCTGGCACGTGGTATA,-0.33
21,TGGTTCACGTGTTGCG,0.25
22,AGGTTCACGTGAGGGG,0.33
23,AGGTACACGTGAGCTT,0.3
24,GGGGTCACGTGTAGGG,0.12
25,GTTCTCACGTGATAGT,0.42
26,CTGTGCACGTGGGTGG,-0.23

row,Sequence,relative binding free energy [kcal/mol]
1,GGTTTCACGTGTTCGT,0.36
2,TTGGTCACGTGGTCCG,-0.01
3,TTTATCACGTGGAAGT,0.2
4,TGGTGCACGTGACTGT,0.03
5,GCAGTCACGTGGGTGG,-0.1
6,ATGTGCACGTGATTGA,0.05
7,AAATTCACGTGGGCAT,0.32
8,TATGGCACGTGCTTAG,-0.24
9,AGGAACACGTGAAAGG,0.28
10,GTTATCACGTGTATTA,0.3
11,TCAGTCACGTGTCGTT,0.16
12,CGGTGCACGTGGTTGA,-0.11
13,GATGTCACGTGATTCT,0.42
14,GTATTCACGTGTGGGG,0.33
15,GTCGGCACGTGTGCGT,-0.03
16,AAAGGCACGTGGGCTT,-0.19
17,ATGTTCACGTGTTTCT,0.22
18,CGAGACACGTGGAGGT,0.06
19,TCGGACACGTGGGTGC,-0.2
20,TTGTTCACGTGCGGGT,0.19
21,AAAGACACGTGGGGTC,-0.04
22,GGTATCACGTGGATGT,0.21
23,GGTTTCACGTGTCTAT,0.23
24,GTCTACACGTGATGGT,0.34
25,AGGGACACGTGGCTAT,0.05
26,TGTAACACGTGTGTGT,-0.03

row,Sequence,relative binding free energy [kcal/mol]
1,TGATTCACGTGATAGG,0.34
2,TGTGGCACGTGACTGC,-0.11
3,GGGTACACGTGTTGGG,0.13
4,TATGTCACGTGATTCG,0.13
5,ATAAACACGTGCTGGT,0.05
6,TAAGACACGTGGAGTT,0.09
7,AATAGCACGTGGGAGG,-0.22
8,TGCGGCACGTGGATGG,-0.03
9,CGGATCACGTGATTGT,0.35
10,TCTGTCACGTGGGCTG,-0.03
11,GGATGCACGTGGAGTG,-0.09
12,TGAGTCACGTGTAGCT,0.27
13,CTGCGCACGTGGGGGG,-0.32
14,GGGGGCACGTGCGTCG,-0.24
15,TCTGCCACGTGGTTGG,-0.17
16,AGGAACACGTGAAGGG,0.25
17,TGGTACACGTGGTGAC,0.01
18,AGAGCCACGTGGGTTT,-0.17
19,ATGTTCACGTGATATA,0.23
20,GTCTACACGTGAGATT,0.48
21,AGAATCACGTGAAGTA,0.54
22,GTGTGCACGTGAATCA,0.38
